Over roughly 33,000 sequences, “E-score (dimensionless, -0.5 to 0.5)” has its median near -0.058; the highest 2% begin near 0.35. The list shows a part of the results.
test system: MvaT; assay: PBM 8-mer E-score (mean of HK and ME arrays) (E-score (dimensionless, -0.5 to 0.5)); higher = stronger relative binding preference; most listed sequences are background and not binding sites
Method in brief: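 Full-length P. aeruginosa MvaT, with glutathione S-transferase fused to its N-terminus (cloned into pTH6838 by isothermal assembly), was tested by protein binding microarray using a previously described protocol. Two universal double-stranded 60-mer arrays (ME and HK) were used, each with a constant 25-mer primer region and a variable 35-mer region covering all 8-mers. The rank-based 8-mer E-score (-0.5 to 0.5) is the mean of the two arrays, parsed with a custom Python script.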

Sequence | PBM 8-mer E-score
CCCCTCGC | -0.289
CATAGATC | 0.00108
CGGAAAAC | 0.0835
CACTCCCA | -0.0654
AAACTACG | 0.246
AACTAAAA | 0.345
TGGTGTAA | 0.257
ATTACAAT | 0.322
ATTCGTCG | -0.00371
AACGTATA | 0.263
CGCATGAG | -0.191
CGATAATA | 0.301
TAAATTTA | 0.414
AACGTCCG | -0.181
GATCACTA | -0.0628
TCTTGTCA | -0.189
CGTCCGTC | -0.323
AGTCCGCA | 0.0621
ACAAAAGA | 0.143
GAGCGGTA | -0.156
CTTCGTCC | -0.284
AACCATCT | 0.0815
AGTTTAGG | 0.162
CACGATGC | -0.0641
ATGGGTAC | -0.0802

Sequence | PBM 8-mer E-score
TAAAGCGA | 0.0135
AAACGGCC | -0.128
CCTGGAAA | -0.0539
CCTTCGCA | -0.234
GTGGAGAA | -0.123
TACGCGTA | 0.102
GTGATGCA | -0.0484
GTTCCCTA | -0.0545
ACTACGAA | 0.148
GCTACCTA | -0.0978
ATGGCTGG | -0.212
ACATCCGT | -0.0148
ATCAAGGC | -0.14
CCGGGGTC | -0.262
GATCACCA | -0.205
ACGCAACA | 0.0715
CACCAGCA | -0.121
CTCAGCAC | -0.246
CGGGTTGC | -0.117
ACCGTTTC | -0.321
CTACCGTA | -0.0529
AAGTCTGT | 0.0336
GACCGCCC | -0.264
ATACGAAG | 0.0479
AAATAAAC | 0.334

Sequence | PBM 8-mer E-score
CCGACAGC | -0.0581
AAGACGAA | 0.0457
ATCTCTCC | -0.192
TAATGCAA | 0.25
CAAATATG | 0.264
CTAACCAG | -0.152
CCCTTTAG | -0.113
CTACTAGA | -0.0802
CAGCGCTG | -0.201
CCGTAGGA | -0.216
GCCAACGC | -0.237
GATCAATC | -0.178
AAACAGGA | 0.00359
ATACAAAT | 0.35
GCCCCCGA | -0.384
ATTTCTTA | 0.256
ACTGTTGG | 0.0275
AGACGAAT | -0.128
CGATGAAG | -0.0628
AAGCATCG | -0.112
ATCTTCCG | -0.0945
ACCGATCT | -0.0769
TAATAGCA | 0.317
ATTTAGTG | 0.17
CCGCAATC | 0.0112

Sequence | PBM 8-mer E-score
AGAGTCTC | 0.0521
CCTTAACA | 0.0962
AGGGGATA | -0.11
ATAGCACA | 0.00198
ACGGTTAC | -0.0438
CGTAAACG | -0.0778
CTTGGGAC | -0.104
ATGATATA | 0.262
CTACTCCC | -0.00922
AGGTGTAT | 0.0535
ATCGAGTG | -0.14
ACTTGCCG | -0.00427
GGAGCACC | -0.296
AAGCTGAA | -0.0988
ATCAGGAC | 0.0315
AGGTTTCG | -0.156
AGTATGGC | 0.00878
CTGACAAC | -0.0243
AAGGTGCC | -0.22
ATCGCCGC | -0.0467
GTCCGCGA | -0.0617
CGACCACG | -0.21
CTGCAGCC | -0.148
GTTGATAA | 0.233
GGCCTCCA | -0.237

Sequence | PBM 8-mer E-score
ACGGCTTC | -0.205
GAGAATGA | -0.0578
AATGCGCC | -0.0448
CCATTTTA | -0.0521
GGAAGGCA | -0.221
CGTGGCCA | -0.293
ATAGTAGC | 0.154
AACTTTCT | 0.22
ATTTCTCC | 0.0744
GGACGGCA | -0.204
CGGATCGC | -0.251
GTGTGACA | 0.000184
CGATGACA | -0.000569
CTGGCGGA | -0.167
AGGATGTC | -0.16
GAAACATA | 0.343
AGTTCAGA | 0.0962
CGCTCACA | -0.125
AGGACCTG | -0.178
ATCAGCTA | -0.0431
CTAGCCCA | -0.248
CCATGAAG | -0.154
ATAGACGA | 0.0286
AAGTGAAA | 0.163
CTACAACA | 0.244

Sequence | PBM 8-mer E-score
ACTATTGC | 0.202
GCGCACTA | 0.048
GCGCGCCC | -0.28
GAGGGAAC | -0.291
GAGGTAAA | 0.0655
ACGGTATA | 0.175
GGAGAGCC | -0.313
AACGTGTC | -0.117
TCAGGAGA | -0.0641
CCGTAACG | -0.103
GGAACAAC | 4.61e-05
CCGCTCAC | -0.256
ATCCTGCC | -0.264
ACGTTGGG | -0.0365
GCTTACAC | -0.136
ACTTAAGA | 0.225
CCGTCTGA | -0.0783
CCGTTTGA | 0.0765
GTGCGGCA | -0.203
ACAATAGC | 0.202
GGTTGTCA | -0.0626
AGGACCTC | -0.306
AAGACTCT | -0.0622
TGCATAAA | 0.208
CCGACTTC | -0.0506

Sequence | PBM 8-mer E-score
GCATTTGA | 0.0521
AGTTCCGA | 0.0562
ACTTCGTC | -0.167
ACGGGGTA | -0.0934
CGCGGCAC | -0.152
AAAATTCC | 0.141
CACGAAGC | -0.105
ACTTGCCT | 0.0341
GTTTCCCA | 0.0136
GATGCGAC | -0.266
ATGACAAC | 0.056
GCTCAACA | -0.0453
AAGCGACT | -0.167
GAAACGTA | -0.0305
CCGAGGAC | -0.327
GAACAGCA | -0.137
ACAGTCGT | -0.175
GTGGCGAA | -0.0349
AACGTTGC | 0.0306
AGCAGCGA | 0.0043
ACGACATA | 0.11
CTTAATCA | 0.174
GTAAGGGA | 0.000975
AAACGGGT | 0.0831
GCAAACCC | 0.0106

Sequence | PBM 8-mer E-score
CGCGAGTC | -0.189
CGAGTGTA | 0.0819
ACACGGAT | -0.0371
CCTATAGG | -0.183
CACCGCCC | -0.0502
CTTGCTGA | -0.116
ACAATACT | 0.223
AAGCTTCA | -0.0502
CTAGGACA | -0.162
TCACAACA | 0.133
GAATTTAA | 0.264
GTCGCCAA | -0.166
GATATTGA | 0.228
TCGAGTCA | -0.118
TAGAAACA | 0.219
CATCTGTA | -0.0337
AGTGGCTC | -0.177
AAGAACTA | 0.208
AGGTACAG | -0.139
CACCAACA | 0.0857
CTACGCAG | -0.282
CGTCTGGC | -0.15
ATACACAA | 0.154
AAACGGGG | -0.0516
CCGGCAGC | -0.221

Sequence | PBM 8-mer E-score
AGGCTCCG | -0.255
ATCGCAGC | -0.234
GCTGTAAA | 0.0774
ATTCGACA | 0.07
AGGACGGC | -0.3
AGCCGCGG | -0.191
GCTAGGCA | -0.187
ACACCTTC | -0.0944
GGGGGAGA | -0.213
CCAGCTGA | -0.106
CATAAAAC | 0.232
AGGAAGGA | -0.168
AACCCTTA | -0.0282
TACAGCAA | 0.00971
CGGGTTCC | -0.15
AACTGAAC | 0.104
CTACCACA | 0.147
CATGGCGA | -0.15
ATGTTGGG | 0.105
ATATGACA | 0.211
CCGCCTGC | -0.18
CCACTCAA | 0.0518
TGACGTAA | 0.0689
AGGATTTG | -0.0256
CGCCTTGC | -0.254

Sequence | PBM 8-mer E-score
ATTTAGGA | 0.165
AAGAGTCC | -0.0986
CAGGCACC | -0.285
GCCTCTGA | -0.299
ATAATGAA | 0.323
AATAATTC | 0.344
ATCCCTGC | -0.153
ACCCAGAA | 0.0295
AAATTAGG | 0.165
AGGACTAC | -0.159
CCGCTCTC | -0.31
ACATGCCA | -0.0617
CTCGTCAG | -0.173
ACGCGGAG | -0.247
CGGTCCCC | -0.373
GACCAGAC | -0.127
GGGCCGTA | -0.325
AGGAGATA | -0.0422
CGTCTTAG | -0.168
AACTCAGG | 0.0528
CGCTGTAG | -0.198
ATAGCAGG | -0.0636
GCAATTAA | 0.324
AAGGAGAG | -0.222
CTATACTA | 0.156

Sequence | PBM 8-mer E-score
AGACCAAA | 0.0534
CAAACATA | 0.239
ATGTTCGG | -0.0503
ACGTGATC | -0.0703
CCTCAACG | -0.151
GACCCCCA | -0.312
ATCATTCC | -0.0603
CTACAAAC | 0.0234
ACCTAACT | 0.17
GAATCCGA | 0.00482
GATGTGGA | -0.0636
AGGTGAAC | -0.0221
CTTCGTAC | 0.0657
GGCTATAC | -0.116
AACTTTTG | 0.236
AATCTCGC | 0.152
AAGCACAA | 0.0557
CAGCATTA | 0.186
CTAGCCAG | -0.326
ACGGCATA | 0.13
ACCTTTTG | 0.024
CTCCAGTC | -0.167
AGTGAGGG | -0.315
CGGAAACG | -0.182
TCGAGCCA | -0.31

Sequence | PBM 8-mer E-score
ATCCACTC | -0.167
ATTAGCGC | 0.0102
ACCCGCCT | -0.136
AACAGTTG | 0.0981
AAGGACTC | -0.238
AAACGTAG | -0.0334
CAAAGACA | -0.0437
ACGTCCTA | -0.0341
GAACGCAC | -0.133
AGGATGCA | -0.0501
ATCCGTTA | 0.103
AGTAATCA | 0.189
GAACCGGA | -0.213
CGACCGAC | -0.211
TGGGCGAA | -0.0675
TATTCGGA | -0.000615
TCTCAGCA | -0.127
ACAAATTG | 0.137
ATATCCGG | 0.0998
CCTGGTTA | -0.0811
TGGCCACA | -0.107
GCTATCAC | -0.038
GTACGCGA | -0.0165
ATGCAGGG | -0.155
AAAGCTAA | -0.000957

Sequence | PBM 8-mer E-score
GGACCTGA | -0.207
CGATCGCA | -0.0847
AGGTCCGC | -0.229
ACAAATAA | 0.38
CGCTGGGC | -0.291
CAGTCGGG | -0.177
TACGCACA | 0.0888
CCACTCGC | -0.201
GACCCTAA | -0.19
GAGTTTAA | 0.235
CGTATTAC | 0.17
CGCTTGAC | -0.22
ATTCAGGG | 0.0144
CGCATTGA | -0.126
CGGATGAC | -0.186
CTCTGAAC | -0.131
GCCAGGGC | -0.268
CTCTGCCC | -0.164
AAGGACTA | -0.00864
AGCGGGCC | -0.323
CGCCCTCC | -0.309
TACGGTGA | -0.0369
CACCAGGA | -0.0879
CCGAACAA | 0.0435
AAGGTTGA | -0.0613

Sequence | PBM 8-mer E-score
CTCAGCAG | -0.226
CGTTCACA | -0.112
AGGGGGAA | -0.164
AATCTAGT | 0.0292
TCAGAAAA | -0.0512
CCCCTCTA | -0.282
CCTGCTGA | -0.186
AAGGTCAC | -0.175
AACTACAG | 0.0893
GAGCAAGC | -0.2
ACTTCTTC | 0.0165
CATATATG | 0.449
CGCAGGAC | -0.325
CGCCAATC | -0.0439
ACCGTCAG | -0.19
CAAACTCA | 0.0244
TAGGGCCA | -0.0889
AAAAGTTG | 0.221
TAGGCTGA | -0.18
